Some of the results follow. Values were computed here from the reads of four pooled replicates and scatter widely.
target: T1, Pho4 (S. cerevisiae) (UniProt P07270); experiment: relative binding free energy (BET-seq); higher = weaker binding; conditions: reference: library average
T1 sequence: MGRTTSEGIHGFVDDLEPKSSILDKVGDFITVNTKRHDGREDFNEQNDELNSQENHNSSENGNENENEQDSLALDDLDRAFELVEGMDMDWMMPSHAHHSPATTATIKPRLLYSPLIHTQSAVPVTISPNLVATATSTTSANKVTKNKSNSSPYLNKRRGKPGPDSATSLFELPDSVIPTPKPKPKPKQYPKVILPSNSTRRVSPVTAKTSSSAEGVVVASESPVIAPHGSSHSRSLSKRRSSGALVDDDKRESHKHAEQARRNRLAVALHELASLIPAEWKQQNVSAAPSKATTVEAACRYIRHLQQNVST

| Sequence | relative binding free energy [kcal/mol] |
| --- | --- |
| TCTTGCACGTGTCTGT | -0.08 |
| TTGGCCACGTGAGTAG | 0.11 |
| AACATCACGTGGGTTG | -0.05 |
| AGAGACACGTGAGGGA | 0.24 |
| AAGTTCACGTGTGGGT | 0.23 |
| ACGGTCACGTGAAGGG | 0.26 |
| TAGCGCACGTGGTTGA | -0.17 |
| GTTGACACGTGGGTGG | 0.03 |
| ATAGACACGTGGGTGG | -0.17 |
| TCCTTCACGTGTTTGT | 0.12 |
| GATCGCACGTGAGGGG | 0.2 |
| AGCTTCACGTGGGGGT | 0.09 |
| TTGTACACGTGAGGAA | 0.32 |
| GATAACACGTGATTGT | 0.3 |
| GGGATCACGTGGCGGG | 0.15 |
| TATTACACGTGGGGGA | 0.04 |
| AAGTTCACGTGAGGGC | 0.38 |
| GGTCTCACGTGTTGCG | 0.3 |
| GAGGGCACGTGGTCTT | -0.26 |
| GTGGTCACGTGTACTA | 0.18 |
| TCGATCACGTGCGGGG | 0.03 |
| CTCTGCACGTGTGTGG | 0.01 |
| GGAGGCACGTGGTGGG | -0.15 |
| CGTTGCACGTGTTTAA | 0.01 |
| TTTATCACGTGCTTAG | 0.13 |
| GGTAGCACGTGCATTG | -0.09 |

| Sequence | relative binding free energy [kcal/mol] |
| --- | --- |
| ATGCTCACGTGTTAGT | 0.18 |
| AGTGTCACGTGTTTTA | 0.04 |
| AGGTACACGTGTTGAG | 0.14 |
| ATATTCACGTGCGGGT | 0.16 |
| ATGGCCACGTGGTTTG | -0.16 |
| GATAGCACGTGGGATG | -0.07 |
| CGCGTCACGTGAGGGC | 0.28 |
| ATAGACACGTGAGTAT | 0.18 |
| TTTATCACGTGTGTCG | 0.18 |
| TATGGCACGTGGTCGA | -0.2 |
| CCAGACACGTGGGGGT | -0.14 |
| TGGGGCACGTGTCAAA | -0.07 |
| CTAGTCACGTGTGTTA | 0.01 |
| GGGAACACGTGGATTG | 0.14 |
| GAAGGCACGTGTGGAG | 0 |
| ATGATCACGTGATGCT | 0.22 |
| TGTTACACGTGTGAAG | 0.08 |
| TCTTGCACGTGGTGAC | 0.06 |
| GTCATCACGTGTGGTA | 0.19 |
| CGGTGCACGTGGCTAG | -0.1 |
| GTAGGCACGTGTTTCT | -0.07 |
| CGAGTCACGTGGTGCT | 0.04 |
| AAGTGCACGTGAGGTG | 0.27 |
| GATTGCACGTGTGCGC | 0.09 |
| ATAGTCACGTGCGGAG | 0.1 |
| TGGTGCACGTGGATGC | -0.03 |

| Sequence | relative binding free energy [kcal/mol] |
| --- | --- |
| GAGTGCACGTGGATAG | 0.08 |
| AGATTCACGTGTGAAT | 0.26 |
| GCTTACACGTGGTATG | 0.12 |
| GACGGCACGTGTGGCA | 0.1 |
| CGGTTCACGTGGACGG | 0.29 |
| AGTAGCACGTGATGAA | 0.08 |
| GGATGCACGTGGATGT | 0.02 |
| TTCGACACGTGGGTAT | -0.17 |
| GAGTGCACGTGTCGGT | 0.19 |
| AAAGGCACGTGGGGGA | -0.21 |
| TAGGGCACGTGGTGAT | -0.11 |
| GTGGGCACGTGAGAGC | 0.22 |
| TGAGTCACGTGTCGTA | 0.2 |
| ATGGACACGTGAAGGA | 0.22 |
| CGGGGCACGTGGAAAT | 0.18 |
| GTGGCCACGTGGAGGT | 0 |
| TTTGACACGTGCGATT | -0.1 |
| GGGTGCACGTGAAGCC | 0.36 |
| TGTATCACGTGGGACG | 0 |
| CAAGGCACGTGTTGTT | -0.23 |
| GGAAGCACGTGCGGGT | -0.14 |
| TGGGTCACGTGAAATA | 0.47 |
| GTTTCCACGTGTGTTT | 0.25 |
| TTGGCCACGTGGTTGC | -0.06 |
| CTTTTCACGTGCTAGT | 0.2 |
| CGGTTCACGTGATTTA | 0.52 |

| Sequence | relative binding free energy [kcal/mol] |
| --- | --- |
| GAATTCACGTGTATAA | 0.34 |
| ATTTTCACGTGGACGG | 0.29 |
| CTGGGCACGTGATGGA | -0.04 |
| GTACTCACGTGCGTGT | 0.15 |
| GAGGGCACGTGAGCGA | 0.07 |
| ACAGTCACGTGGAGTG | -0.06 |
| CGTGTCACGTGTTTAA | 0.03 |
| TACGGCACGTGTCTGG | -0.08 |
| CTGTACACGTGGTGAA | -0.03 |
| AGGGTCACGTGGACGC | 0.17 |
| GTGTTCACGTGGGCCA | 0.18 |
| TATTTCACGTGGGGCC | 0.39 |
| TGGCACACGTGGGTCA | -0.04 |
| AGGTGCACGTGATTTC | 0.09 |
| TGGCGCACGTGAGTGA | 0.15 |
| AATGGCACGTGGGTCT | -0.16 |
| CGTGTCACGTGGATAG | 0.15 |
| AGTCGCACGTGCATGG | -0.14 |
| ATTGTCACGTGACCGG | 0.17 |
| GAATTCACGTGTGAAG | 0.42 |
| CTTGCCACGTGGCGGG | -0.17 |
| GGTCTCACGTGGAGAG | 0.2 |
| TTCTACACGTGGGGGC | 0.06 |
| CAGAGCACGTGTTAGT | 0.02 |
| AAGTTCACGTGGGCCG | 0.25 |
| TGGTACACGTGATGTC | 0.18 |

| Sequence | relative binding free energy [kcal/mol] |
| --- | --- |
| ATAGTCACGTGATCTG | 0.13 |
| TAGCTCACGTGGTAGG | 0.24 |
| ACGGTCACGTGGCAGG | 0 |
| AGCGACACGTGTGGGG | 0.07 |
| GTTGCCACGTGGGAGT | -0.25 |
| TGGGTCACGTGGCTCT | 0.13 |
| AGATACACGTGGAGGT | 0.06 |
| CGTGGCACGTGGGTGT | -0.24 |
| ACGGGCACGTGTTGGG | -0.05 |
| GAATTCACGTGGATAT | 0.29 |
| GGTGTCACGTGTTTGT | 0.17 |
| ATAAGCACGTGTGTCT | 0.03 |
| AGATTCACGTGAGGAT | 0.33 |
| GATGACACGTGGGGTC | 0 |
| GGGCTCACGTGTTGCG | 0.26 |
| CTGTTCACGTGGCTTT | 0.18 |
| GTTAACACGTGGATGT | -0.02 |
| CAGGGCACGTGTGGTA | -0.08 |
| AGTCTCACGTGGCGGT | 0.13 |
| CATGTCACGTGTGGTG | 0.04 |
| CGTAGCACGTGGGTAG | -0.24 |
| TGCTTCACGTGGGTTG | 0.13 |
| TGCGACACGTGGGGTC | -0.09 |
| CTTGTCACGTGTTGGA | 0.13 |
| ATGAGCACGTGGTGCA | -0.24 |
| TTAACCACGTGGTGTA | -0.08 |

| Sequence | relative binding free energy [kcal/mol] |
| --- | --- |
| GAGTACACGTGTTGTT | 0 |
| TGTAGCACGTGGGGCC | -0.19 |
| ATGGACACGTGCAGGT | -0.02 |
| TGTTGCACGTGTTTGG | 0.03 |
| TTTCTCACGTGGAGAG | 0.33 |
| AAAGTCACGTGATAGT | 0.16 |
| TAAATCACGTGGTGAG | 0.09 |
| TCAGGCACGTGAGGTA | 0.28 |
| CATGTCACGTGTTATA | 0.17 |
| ATTTTCACGTGGCTTG | 0.28 |
| CTATGCACGTGAGTGT | 0.06 |
| GGAGGCACGTGGCGGG | -0.09 |
| CTAGTCACGTGTGTCG | 0.13 |
| GGTATCACGTGTGTAA | 0.15 |
| CTTCACACGTGGTGTT | 0.05 |
| TGATGCACGTGAGGTA | 0.15 |
| AGTTTCACGTGCATTT | 0.31 |
| GTAGTCACGTGCTCGG | 0.01 |
| GATGTCACGTGTATTT | 0.23 |
| CATGTCACGTGGAGGA | 0.02 |
| GTTAACACGTGAAGGA | 0.24 |
| AAGAGCACGTGTGATG | -0.02 |
| GTTAACACGTGGCTGA | 0.09 |
| TGACTCACGTGTATTT | 0.09 |
| GTTGTCACGTGCACGG | 0.1 |
| ATTGACACGTGATGGA | 0.14 |

| Sequence | relative binding free energy [kcal/mol] |
| --- | --- |
| AGGGTCACGTGATCTA | 0.43 |
| AATTTCACGTGGATTG | 0.17 |
| TTCTTCACGTGGTCGT | 0.14 |
| TGATGCACGTGAAGGT | 0.13 |
| AGGGTCACGTGGAATT | 0.12 |
| GATATCACGTGTGAAG | 0.2 |
| ATGCTCACGTGTATGT | 0.12 |
| GTTGGCACGTGATTTG | 0.09 |
| GGGACCACGTGTTGAG | 0.13 |
| ATGCGCACGTGAGTTA | 0.15 |
| TGTTTCACGTGTGCAG | 0.34 |
| TATTTCACGTGCGGTT | 0.18 |
| GACTGCACGTGGGGTG | -0.15 |
| GGTCCCACGTGTTTGG | -0.01 |
| AGCAGCACGTGTGTAG | 0 |
| TTACTCACGTGTAGGA | 0.16 |
| GGCGTCACGTGGGTAG | 0.07 |
| TCGTACACGTGTGTTG | -0.03 |
| CGGGGCACGTGTTTAT | -0.12 |
| GCTTTCACGTGGTAGA | 0.19 |
| GTTTGCACGTGTATCA | 0.18 |
| TATATCACGTGGGCAT | -0.1 |
| ATAATCACGTGAGAGT | 0.29 |
| GTTTACACGTGCGTTT | 0.21 |
| TATTTCACGTGTCGTA | 0.29 |
| GGGTGCACGTGATCGG | 0.11 |

| Sequence | relative binding free energy [kcal/mol] |
| --- | --- |
| TTTTGCACGTGATCGT | 0.06 |
| TGGCGCACGTGTAAGG | 0.07 |
| GGTCGCACGTGGGGGT | -0.18 |
| CGGTGCACGTGGGGGC | -0.14 |
| TCGGGCACGTGTCTTT | -0.04 |
| GGACTCACGTGAGGTA | 0.43 |
| ATGTACACGTGCTGGG | 0.01 |
| TTAGGCACGTGCCAGT | -0.12 |
| ATGGACACGTGGGAAA | 0.11 |
| GGGCGCACGTGTGAAG | 0.05 |
| GGTGTCACGTGAAGTG | 0.44 |
| GTAACCACGTGGGGGG | -0.08 |
| GGTTACACGTGGTGCG | 0.12 |
| GCGTTCACGTGAGGTG | 0.45 |
| AAGTTCACGTGCGTTG | 0.12 |
| AAGGACACGTGGATGT | 0.15 |
| TTAGGCACGTGGTCGA | -0.25 |
| ATGGGCACGTGGTTAA | -0.19 |
| TTCTGCACGTGTCGGC | 0.19 |
| GTAGGCACGTGGGGGA | -0.14 |
| GATTCCACGTGGGTGG | -0.01 |
| ATGTGCACGTGGAAAT | -0.04 |
| ATGAACACGTGTTGCG | 0.07 |
| AAAGTCACGTGCATGG | 0.1 |
| TGCGTCACGTGGGGTA | -0.07 |
| TTTTGCACGTGGTAAT | -0.04 |

| Sequence | relative binding free energy [kcal/mol] |
| --- | --- |
| GATGTCACGTGGTTGC | 0.06 |
| AATGGCACGTGTGTTT | 0.03 |
| TGCATCACGTGGGAGG | 0.03 |
| ACGTTCACGTGGCAGT | 0.29 |
| TATTTCACGTGGTGCG | 0.17 |
| GATGGCACGTGATGAG | 0.06 |
| CTGGTCACGTGGCTAG | 0.04 |
| AGTGGCACGTGGCAAT | -0.25 |
| TATTGCACGTGGGTCA | -0.26 |
| ATTTGCACGTGTGGGC | 0.13 |
| GCTGGCACGTGTTATG | -0.07 |
| AGTTTCACGTGGAGTG | 0.29 |
| GTGGTCACGTGCGATA | 0.22 |
| CAATTCACGTGGTGGT | 0.08 |
| GGAAACACGTGTTGGT | 0.11 |
| TTCGTCACGTGTTTTT | 0.17 |
| GTTTGCACGTGGAATG | 0.16 |
| AGTCGCACGTGCGAGG | -0.03 |
| GGAATCACGTGTAGTG | 0.23 |
| TCGGGCACGTGGTAGG | -0.31 |
| GTGTCCACGTGAGGTA | 0.3 |
| TGGATCACGTGTTGTA | 0.12 |
